Reference: the supplement of paper PMC7125110
± gives the standard error. This sample is rich in variants without activity.

B1: glmS ribozyme (parent)
chain: AUAAAAGCGCCAGAACUACAGAAAUGUAGUUGACGAGGAGGAGGUUUAUCGAAUUUUCGGCGGAUGCCUCCAAA

How the values were obtained:
Conditions in all cases: with glucosamine-6-phosphate
[1] = variants of: B1; assay: self-cleavage kobs at 40 uM GlcN6P; higher = faster cleavage; RNA array
Procedure, shortened: (§1)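 Ribozyme variants carrying barcodes were transcribed in situ on sequenced MiSeq chips by E. coli RNA polymerase and tracked at 37 °C with a hybridised Cy3 probe. They were exposed to 40 μM to 10 mM glucosamine-6-phosphate in HEPES/KCl/Mg(OAc)2 buffer. kobs came from exponential decay fits of normalised per-tile medians, and kcat and KM from weighted Michaelis–Menten fits.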

[2] = variants of: B1; assay: self-cleavage kobs at 640 uM GlcN6P; higher = faster cleavage; RNA array
Procedure, shortened: as §1

[3] = variants of: B1; assay: self-cleavage kobs at 2500 uM GlcN6P; higher = faster cleavage; RNA array
Procedure, shortened: as §1

[4] = variants of: B1; assay: self-cleavage kobs at 10000 uM GlcN6P; higher = faster cleavage; RNA array
Procedure, shortened: as §1

[5] = variants of: B1; assay: self-cleavage kobs at 160 uM GlcN6P; higher = faster cleavage; RNA array
Procedure, shortened: as §1

Variant	self-cleavage kobs at 40 uM GlcN6P [1]	self-cleavage kobs at 640 uM GlcN6P [2]	self-cleavage kobs at 2500 uM GlcN6P [3]	self-cleavage kobs at 10000 uM GlcN6P [4]	self-cleavage kobs at 160 uM GlcN6P [5]
U46A U47G U57G G60U	< 1e-05 s⁻¹	< 1e-05 s⁻¹	< 1e-05 s⁻¹	< 1e-05 s⁻¹	
U46C A48C U49C U54C G66U	< 1e-05 s⁻¹				
U46C C71U	0.000102 ± 1.5e-05 s⁻¹				
U46C G51U	< 1e-05 s⁻¹	< 1e-05 s⁻¹	< 1e-05 s⁻¹		< 1e-05 s⁻¹
U46G A48G	< 1e-05 s⁻¹		5.4e-05 ± 1.2e-05 s⁻¹	7.08e-05 ± 1e-05 s⁻¹	
U46G A53U	0.000116 ± 2.4e-05 s⁻¹	0.00141 ± 0.00032 s⁻¹	0.00253 ± 0.00059 s⁻¹	0.00566 ± 0.00098 s⁻¹	
U46G C61G	< 1e-05 s⁻¹	< 1e-05 s⁻¹			< 1e-05 s⁻¹
U46G G60U	< 1e-05 s⁻¹			< 1e-05 s⁻¹	< 1e-05 s⁻¹
U46G G62A	< 1e-05 s⁻¹			< 1e-05 s⁻¹	< 1e-05 s⁻¹
U46G U49C	< 1e-05 s⁻¹	< 1e-05 s⁻¹	< 1e-05 s⁻¹	< 1e-05 s⁻¹	< 1e-05 s⁻¹
U46G U49G	< 1e-05 s⁻¹		8.04e-05 ± 1.8e-05 s⁻¹	7.66e-05 ± 1.7e-05 s⁻¹	
U46G U54G	0.000155 ± 2.6e-05 s⁻¹	0.00224 ± 0.0004 s⁻¹	0.00479 ± 0.0013 s⁻¹	0.0102 ± 0.003 s⁻¹	0.000596 ± 0.00017 s⁻¹
U46G U65A C70U	8.31e-05 ± 1.9e-05 s⁻¹			0.00117 ± 0.00024 s⁻¹	
U47A A52C	< 1e-05 s⁻¹				
U47A A64U G66U	< 1e-05 s⁻¹				< 1e-05 s⁻¹
U47A C50A	< 1e-05 s⁻¹				
U47A G60C C61A	< 1e-05 s⁻¹			< 1e-05 s⁻¹	
U47A U55G	0.000473 ± 8.1e-05 s⁻¹	0.00869 ± 0.0018 s⁻¹	0.0105 ± 0.0022 s⁻¹	0.0152 ± 0.0031 s⁻¹	0.000805 ± 0.00018 s⁻¹
U47C A48G C50G C70G	3.16e-05 ± 1.6e-05 s⁻¹				
U47C C50A	< 1e-05 s⁻¹				
U47C G51C	< 1e-05 s⁻¹		< 1e-05 s⁻¹		< 1e-05 s⁻¹
U47G A52U U69G	4.05e-05 ± 1.5e-05 s⁻¹			3.79e-05 ± 1.3e-05 s⁻¹	
U47G A53G	0.000319 ± 4.7e-05 s⁻¹				
U47G G62A U65G	< 1e-05 s⁻¹		< 1e-05 s⁻¹	< 1e-05 s⁻¹	
A48C G60A	< 1e-05 s⁻¹	< 1e-05 s⁻¹	< 1e-05 s⁻¹	< 1e-05 s⁻¹	
A48C G60U	< 1e-05 s⁻¹	< 1e-05 s⁻¹	< 1e-05 s⁻¹	< 1e-05 s⁻¹	< 1e-05 s⁻¹

Variant	self-cleavage kobs at 40 uM GlcN6P [1]	self-cleavage kobs at 640 uM GlcN6P [2]	self-cleavage kobs at 2500 uM GlcN6P [3]	self-cleavage kobs at 10000 uM GlcN6P [4]	self-cleavage kobs at 160 uM GlcN6P [5]
A48G C67U	< 1e-05 s⁻¹				
A48G U65G	< 1e-05 s⁻¹			3.81e-05 ± 1.3e-05 s⁻¹	< 1e-05 s⁻¹
A48G U69A	< 1e-05 s⁻¹				
A48U A52U C67A	< 1e-05 s⁻¹			< 1e-05 s⁻¹	
A48U C58G	< 1e-05 s⁻¹			< 1e-05 s⁻¹	
A48U C67G	< 1e-05 s⁻¹			4.58e-05 ± 8.4e-06 s⁻¹	
A48U G51A G62A	< 1e-05 s⁻¹				
A48U G63U C68U C70G	< 1e-05 s⁻¹				
A48U U57A	< 1e-05 s⁻¹	< 1e-05 s⁻¹	< 1e-05 s⁻¹	< 1e-05 s⁻¹	
U49A C50G C68G	9.07e-05 ± 3.4e-05 s⁻¹				
U49A C58A	< 1e-05 s⁻¹	< 1e-05 s⁻¹			< 1e-05 s⁻¹
U49A G62C	< 1e-05 s⁻¹			< 1e-05 s⁻¹	
U49C C71G	< 1e-05 s⁻¹			< 1e-05 s⁻¹	< 1e-05 s⁻¹
U49C G63A C67G	< 1e-05 s⁻¹				
U49C G63U	< 1e-05 s⁻¹	< 1e-05 s⁻¹	< 1e-05 s⁻¹	< 1e-05 s⁻¹	
U49C G66C	< 1e-05 s⁻¹	< 1e-05 s⁻¹		< 1e-05 s⁻¹	< 1e-05 s⁻¹
U49C G66U	< 1e-05 s⁻¹	< 1e-05 s⁻¹	< 1e-05 s⁻¹	< 1e-05 s⁻¹	
U49G C61U	< 1e-05 s⁻¹				< 1e-05 s⁻¹
C50A G62U C71U	< 1e-05 s⁻¹				
C50G C58A G62C G63C C70A	4.49e-05 ± 1.7e-05 s⁻¹				
C50G G51C	< 1e-05 s⁻¹		< 1e-05 s⁻¹	< 1e-05 s⁻¹	< 1e-05 s⁻¹
C50G G59A	4.42e-05 ± 2.2e-05 s⁻¹				8.57e-05 ± 2.1e-05 s⁻¹
C50G G62A	3.58e-05 ± 1.1e-05 s⁻¹		0.000168 ± 3.3e-05 s⁻¹		0.000128 ± 2.4e-05 s⁻¹
C50U G59A G60A	< 1e-05 s⁻¹	< 1e-05 s⁻¹			< 1e-05 s⁻¹
C50U G59C	< 1e-05 s⁻¹	< 1e-05 s⁻¹	< 1e-05 s⁻¹	< 1e-05 s⁻¹	< 1e-05 s⁻¹
